# In the supplement of paper PMC8512760:
# Structures can show the parent of a compound that is named as a salt. Some of the results follow. Repeats are few or missing, and single values can be far off.
# Key:
# Assay in all cases: cell viability relative to vehicle (% of vehicle); basal-like triple-negative breast cancer lines; higher = less cytotoxic
# Details in all cases: 10 µM; 72 h
# HCC-1143 = test system: HCC-1143
# HCC-1187 = test system: HCC-1187
# MDA-468 = test system: MDA-468
# SUM-149 = test system: SUM-149
# 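Note: stably firefly luciferase-GFP labeled cells in 96-well plates, viability read as luciferase photon flux after d-luciferin addition, treated wells normalized to vehicle wells, single-dose high-throughput screen.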
structure (smiles),measurement,setting,value
Nc1[nH]c(=O)ncc1F [Flucytosine],cell viability,HCC-1143,92.3
same,cell viability,HCC-1187,81.9
same,cell viability,MDA-468,99.7
same,cell viability,SUM-149,95
COc1cccc2c1C(=O)c1c(O)c3c(c(O)c1C2=O)CC(O)(C(=O)CO)CC3OC1CC(N)C(O)C(C)O1.Cl (centres undefined) [Doxorubicin (Adriamycin) HCl],cell viability,HCC-1143,45.7
same,cell viability,HCC-1187,23.7
same,cell viability,MDA-468,27.4
same,cell viability,SUM-149,37.4
Cl.c1ccc2c(CC3=NCCN3)cccc2c1 [Naphazoline HCl],cell viability,HCC-1143,79.4
same,cell viability,HCC-1187,111
same,cell viability,MDA-468,99.9
same,cell viability,SUM-149,92.3
Clc1ccc(COC(Cn2ccnc2)c2ccc(Cl)cc2Cl)c(Cl)c1.O=[N+]([O-])O (centres undefined) [Miconazole Nitrate],cell viability,HCC-1143,73.9
same,cell viability,HCC-1187,103
same,cell viability,MDA-468,113
same,cell viability,SUM-149,117
Cc1nnc(C(=O)NC(C)(C)c2nc(C(=O)NCc3ccc(F)cc3)c(O)c(=O)n2C)o1 [Raltegravir (MK-0518)],cell viability,HCC-1143,88.4
same,cell viability,HCC-1187,86
same,cell viability,MDA-468,93.9
same,cell viability,SUM-149,130
COc1nc(C)nc(Cl)c1NC1=NCCN1 [Moxonidine],cell viability,HCC-1143,88.2
same,cell viability,HCC-1187,88.4
same,cell viability,MDA-468,98.9
same,cell viability,SUM-149,94.7
COC(=O)C1CC2=CC(=O)CCC2(C)C23OC2CC2(C)C(CC[C@]24CCC(=O)O4)C13 (some centres undefined) [Epleremone],cell viability,HCC-1143,73.2
same,cell viability,HCC-1187,100
same,cell viability,MDA-468,119
same,cell viability,SUM-149,97.1
CCS(=O)(=O)CCn1c([N+](=O)[O-])cnc1C [Tinidazole],cell viability,HCC-1143,98.3
same,cell viability,HCC-1187,78.6
same,cell viability,MDA-468,104
same,cell viability,SUM-149,106
NCCCC(O)(P(=O)([O-])O)P(=O)(O)O.O.O.O.[Na+] [Alendronate],cell viability,HCC-1143,74.8
same,cell viability,HCC-1187,88.7
same,cell viability,MDA-468,89.4
same,cell viability,SUM-149,63.1
Cc1onc(-c2ccccc2)c1-c1ccc(S(N)(=O)=O)cc1 [Valdecoxib],cell viability,HCC-1143,124
same,cell viability,HCC-1187,88.6
same,cell viability,MDA-468,111
same,cell viability,SUM-149,122
COc1ccc(CN2CCN(C(c3ccc(F)cc3)c3ccc(F)cc3)CC2)c(OC)c1OC.Cl.Cl [Lomerizine HCl],cell viability,HCC-1143,72
same,cell viability,HCC-1187,87.5
same,cell viability,MDA-468,101
same,cell viability,SUM-149,76.9
COc1ccc(C[C@H](N)C(=O)N[C@@H]2[C@H](O)[C@H](n3cnc4c(N(C)C)ncnc43)O[C@@H]2CO)cc1.Cl.Cl [Puromycin dihydrochloride],cell viability,HCC-1143,20.8
same,cell viability,HCC-1187,23.8
same,cell viability,MDA-468,35.3
same,cell viability,SUM-149,29.7
CCOC(=O)C1=C[C@]2(CC)CCCN3CCc4c(n1c1ccccc41)[C@@H]32 [Vinpocetine],cell viability,HCC-1143,67.9
same,cell viability,HCC-1187,98.2
same,cell viability,MDA-468,114
same,cell viability,SUM-149,109
CNCC(O)c1ccc(O)c(O)c1 [L-Adrenaline],cell viability,HCC-1143,123
same,cell viability,HCC-1187,138
same,cell viability,MDA-468,151
same,cell viability,SUM-149,112
CCN(CC)CCNC(=O)c1c(C)[nH]c(C=C2C(=O)Nc3ccc(F)cc32)c1C [Sunitinib],cell viability,HCC-1143,72.8
same,cell viability,HCC-1187,61.7
same,cell viability,MDA-468,86.3
same,cell viability,SUM-149,61.9
Cl.NC(CO)C(=O)NNCc1ccc(O)c(O)c1O (centres undefined) [Benserazide HCl],cell viability,HCC-1143,75.2
same,cell viability,HCC-1187,66.1
same,cell viability,MDA-468,121
same,cell viability,SUM-149,101
O=C1CCC(N2C(=O)c3ccccc3C2=O)C(=O)N1 (centres undefined) [Thalidomide],cell viability,HCC-1143,93
same,cell viability,HCC-1187,75.9
same,cell viability,MDA-468,87.3
same,cell viability,SUM-149,107
C/C=C/C1=C(C(=O)O)N2C(=O)[C@@H](NC(=O)[C@H](N)c3ccc(O)cc3)[C@@H]2SC1 [Cefprozil],cell viability,HCC-1143,89.1
same,cell viability,HCC-1187,93.8
same,cell viability,MDA-468,110
same,cell viability,SUM-149,99.7
CN(C)C(=N)N=C(N)N.Cl [Metformin HCl],cell viability,HCC-1143,82.9
same,cell viability,HCC-1187,95.1
same,cell viability,MDA-468,94.6
same,cell viability,SUM-149,110
CCN(CCO)CCCC(C)Nc1ccnc2cc(Cl)ccc12.O=S(=O)(O)O (centres undefined) [Hydroxychloroquine Sulfate],cell viability,HCC-1143,70.2
same,cell viability,HCC-1187,86.5
same,cell viability,MDA-468,90.8
same,cell viability,SUM-149,74.6
O=C(O)CCNC(=O)c1ccc(/N=N/c2ccc(O)c(C(=O)O)c2)cc1 [Balsalazide],cell viability,HCC-1143,84.9
same,cell viability,HCC-1187,92.2
same,cell viability,MDA-468,110
same,cell viability,SUM-149,111
CCC(=O)OCC(=O)C1(OC(=O)CC)C(C)CC2C3CCC4=CC(=O)C=CC4(C)C3(F)C(O)CC21C (centres undefined) [Betamethasone Dipropionate],cell viability,HCC-1143,85.9
same,cell viability,HCC-1187,136
same,cell viability,MDA-468,172
same,cell viability,SUM-149,176
CC(C[N+](C)(C)C)OC(N)=O.[Cl-] (centres undefined) [Bethanechol chloride],cell viability,HCC-1143,68.4
same,cell viability,HCC-1187,85.2
same,cell viability,MDA-468,122
same,cell viability,SUM-149,86.5
CN1CCC(COc2cnc(-c3cccc(Cn4nc(-c5cccc(C#N)c5)ccc4=O)c3)nc2)CC1,cell viability,HCC-1143,90.4
same,cell viability,HCC-1187,44.3
same,cell viability,MDA-468,24
same,cell viability,SUM-149,30.7
CCCC(NC(=O)C1C2CCCC2CN1C(=O)C(NC(=O)C(NC(=O)c1cnccn1)C1CCCCC1)C(C)(C)C)C(=O)C(=O)NC1CC1 (centres undefined) [Telaprevir (VX-950)],cell viability,HCC-1143,88.6
same,cell viability,HCC-1187,72.7
same,cell viability,MDA-468,67.6
same,cell viability,SUM-149,132
Nc1ccc(S(=O)(=O)Nc2ccccn2)cc1 [Sulfapyridine],cell viability,HCC-1143,122
same,cell viability,HCC-1187,124
same,cell viability,MDA-468,105
same,cell viability,SUM-149,101
Cl.Cl.O=C(O)COCCN1CCN(C(c2ccccc2)c2ccc(Cl)cc2)CC1 (centres undefined) [Cetirizine DiHCl],cell viability,HCC-1143,74.3
same,cell viability,HCC-1187,71.9
same,cell viability,MDA-468,96.6
same,cell viability,SUM-149,131
Cc1ccc(NC(=O)C2(c3ccc4c(c3)OC(F)(F)O4)CC2)nc1-c1cccc(C(=O)O)c1,cell viability,HCC-1143,79.4
same,cell viability,HCC-1187,101
same,cell viability,MDA-468,105
same,cell viability,SUM-149,108
COc1c2occc2cc2ccc(=O)oc12 [8-Methoxypsoralen],cell viability,HCC-1143,78.7
same,cell viability,HCC-1187,83.5
same,cell viability,MDA-468,124
same,cell viability,SUM-149,106
COCCCOc1ccnc(C[S+]([O-])c2nc3ccccc3[nH]2)c1C (centres undefined) [Rabeprazole],cell viability,HCC-1143,139
same,cell viability,HCC-1187,97.9
same,cell viability,MDA-468,146
same,cell viability,SUM-149,155
Cc1ccc(C(=O)c2cc(O)c(O)c([N+](=O)[O-])c2)cc1 [Tolcapone],cell viability,HCC-1143,83.6
same,cell viability,HCC-1187,110
same,cell viability,MDA-468,98.3
same,cell viability,SUM-149,100
CC(C)OC(=O)C(C)NP(=O)(OCC1OC(n2ccc(=O)[nH]c2=O)C(C)(F)C1O)Oc1ccccc1 (centres undefined),cell viability,HCC-1143,74.3
same,cell viability,HCC-1187,97.4
same,cell viability,MDA-468,94.7
same,cell viability,SUM-149,104
CC1CCN(C(=O)CC#N)CC1N(C)c1ncnc2[nH]ccc12.O=C(O)CC(O)(CC(=O)O)C(=O)O (centres undefined),cell viability,HCC-1143,73.5
same,cell viability,HCC-1187,53.3
same,cell viability,MDA-468,52.9
same,cell viability,SUM-149,90.3
CC1Cc2ccccc2N1NC(=O)c1ccc(Cl)c(S(N)(=O)=O)c1 (centres undefined) [Indapamide],cell viability,HCC-1143,95.1
same,cell viability,HCC-1187,113
same,cell viability,MDA-468,107
same,cell viability,SUM-149,92.7
Nc1ccn([C@@H]2O[C@H](CO)[C@@H](O)C2(F)F)c(=O)n1 [Gemcitabine HCl],cell viability,HCC-1143,72.5
same,cell viability,HCC-1187,64
same,cell viability,MDA-468,46.2
same,cell viability,SUM-149,131
O=C(CCCN1CC=C(n2c(=O)[nH]c3ccccc32)CC1)c1ccc(F)cc1 [Droperidol],cell viability,HCC-1143,72.2
same,cell viability,HCC-1187,93
same,cell viability,MDA-468,106
same,cell viability,SUM-149,108
CCN(CC)CCOCCOC(=O)C(CC)(CC)c1ccccc1.O=C(O)CC(O)(CC(=O)O)C(=O)O [Oxeladin Citrate],cell viability,HCC-1143,73.5
same,cell viability,HCC-1187,116
same,cell viability,MDA-468,113
same,cell viability,SUM-149,95.2
C=CC[N+]1(C2CC3C4CCC5CC(O)C(N6CCOCC6)CC5(C)C4CCC3(C)C2OC(C)=O)CCCC1.[Br-] (centres undefined) [Rocuronium Bromide],cell viability,HCC-1143,103
same,cell viability,HCC-1187,99.8
same,cell viability,MDA-468,99.4
same,cell viability,SUM-149,87.8
CCC1C(O)C2C3CCC(C(C)CCC(=O)O)C3(C)CCC2C2(C)CCC(O)CC12 (centres undefined) [Obeticholic Acid],cell viability,HCC-1143,70.9
same,cell viability,HCC-1187,90.9
same,cell viability,MDA-468,64
same,cell viability,SUM-149,96.5
OCCOCCN1CCN(C2=Nc3ccccc3Sc3ccccc32)CC1 [Quetiapine],cell viability,HCC-1143,100
same,cell viability,HCC-1187,105
same,cell viability,MDA-468,97.2
same,cell viability,SUM-149,122
CCOC(=O)C1=CC(OC(CC)CC)C(NC(C)=O)C(N)C1.O=P(O)(O)O (centres undefined) [Oseltamivir phosphate],cell viability,HCC-1143,72.1
same,cell viability,HCC-1187,79
same,cell viability,MDA-468,94.4
same,cell viability,SUM-149,94.5
Cc1ncc([N+](=O)[O-])n1CC(C)O (centres undefined) [Secnidazole],cell viability,HCC-1143,83.1
same,cell viability,HCC-1187,78.8
same,cell viability,MDA-468,110
same,cell viability,SUM-149,101
O=C(NC(CO)C(O)c1ccc([N+](=O)[O-])cc1)C(Cl)Cl (centres undefined) [Chloramphenicol],cell viability,HCC-1143,83.7
same,cell viability,HCC-1187,90.5
same,cell viability,MDA-468,86.1
same,cell viability,SUM-149,92.9
CC(C)NCC(O)COc1ccc(CCOCC2CC2)cc1.Cl (centres undefined) [Betaxolol HCl],cell viability,HCC-1143,75.9
same,cell viability,HCC-1187,99.5
same,cell viability,MDA-468,104
same,cell viability,SUM-149,135
CCc1nc(N)nc(N)c1-c1ccc(Cl)cc1 [Pyrimethamine],cell viability,HCC-1143,90.3
same,cell viability,HCC-1187,68.5
same,cell viability,MDA-468,73.3
same,cell viability,SUM-149,85.7
COc1cc(OC)c(C=CS(=O)(=O)Cc2ccc(OC)c(NCC(=O)[O-])c2)c(OC)c1.[Na+],cell viability,HCC-1143,48.7
same,cell viability,HCC-1187,35.4
same,cell viability,MDA-468,55.5
same,cell viability,SUM-149,101
CC(C)(C)C(=O)OCOP(=O)(COCCn1cnc2c(N)ncnc21)OCOC(=O)C(C)(C)C [Adefovir Dipivoxil],cell viability,HCC-1143,88.5
same,cell viability,HCC-1187,97.5
same,cell viability,MDA-468,83.8
same,cell viability,SUM-149,96.4
C[N+](C)(CCOc1ccccc1)Cc1ccccc1.O=C(O)c1cc2ccccc2cc1[O-] [Bephenium Hydroxynaphthoate],cell viability,HCC-1143,84.8
same,cell viability,HCC-1187,131
same,cell viability,MDA-468,160
same,cell viability,SUM-149,177
Cl.Cl.OCCOCCN1CCN(C(c2ccccc2)c2ccc(Cl)cc2)CC1 (centres undefined) [Hydroxyzine 2HCl],cell viability,HCC-1143,118
same,cell viability,HCC-1187,114
same,cell viability,MDA-468,109
same,cell viability,SUM-149,96.2
"CN1CCN(c2ccc3c(c2)NC(=C2C(=O)N=c4cccc(F)c4=C2N)N3)CC1 [Dovitinib (TKI-258, CHIR-258)]",cell viability,HCC-1143,35.7
same,cell viability,HCC-1187,48.5
same,cell viability,MDA-468,40.5
same,cell viability,SUM-149,51
CC1CCc2cc(F)cc3c(=O)c(C(=O)O)cn1c23 (centres undefined) [Flumequine],cell viability,HCC-1143,102
same,cell viability,HCC-1187,108
same,cell viability,MDA-468,103
same,cell viability,SUM-149,126
